Source: the supplement of paper PMC3334620
The full ranking holds about 33,000 sequences; the median of “E-score (-0.5 to 0.5)” is about -0.013, and the highest 2% start at about 0.3. The list shows a part of the results.

Biological target: T1, Msn1 (UniProt P22148)
T1 sequence: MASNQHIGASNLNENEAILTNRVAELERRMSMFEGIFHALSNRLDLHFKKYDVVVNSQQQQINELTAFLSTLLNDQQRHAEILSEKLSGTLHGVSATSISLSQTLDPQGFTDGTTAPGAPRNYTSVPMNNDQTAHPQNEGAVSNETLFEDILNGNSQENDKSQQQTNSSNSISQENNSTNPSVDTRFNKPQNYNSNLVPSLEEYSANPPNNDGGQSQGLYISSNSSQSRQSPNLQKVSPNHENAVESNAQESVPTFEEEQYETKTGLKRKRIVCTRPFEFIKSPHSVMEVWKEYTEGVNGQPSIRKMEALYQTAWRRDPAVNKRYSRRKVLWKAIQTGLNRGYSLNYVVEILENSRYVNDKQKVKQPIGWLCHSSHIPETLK
Test: PBM E-score (8-mer binding enrichment) (E-score (-0.5 to 0.5)); higher = stronger / more preferred TF binding; most listed sequences are background and not binding sites
Conditions: protein concentration: 200 nM; construct: GST-full length
Outline: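 Each ungapped eight-base word and its reverse complement, pooled, received an E-score from the Universal PBM Analysis Suite. Underlying scans, normalised with masliner, recorded fluorescent anti-GST bound to GST-tagged yeast transcription factors. These were applied at about 100-200 nM to universal all-10-mer Agilent arrays double-stranded by primer extension.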

Sequence	PBM E-score
AATTCAGG	0.109
CAGTGTAC	0.0681
TAACAATA	0.174
AGACTACG	-0.214
GCATACAC	-0.0445
AAATATAG	0.268
GAGGCTCA	-0.37
CATTTTGA	0.157
CGCTTAAA	-0.0836
CGACCCCG	-0.346
TAAGGATA	0.13
ATTATTCA	0.202
CCTTTATC	-0.0525
CTCCCAGC	-0.088
TAAGTGTA	0.174
GCTGGGAA	-0.0782
ATCTCTCA	0.0118
CGTTCGCA	-0.115
CCGGGTAG	-0.133
CGTAACGA	-0.0332
ACTGCGGC	-0.135
CGCACCCC	-0.4
TTAGCCAA	-0.0717
TAACAGAA	0.131
AGTGAGAG	-0.225

Sequence	PBM E-score
CAGAGACG	0.0409
GCCCAGCA	-0.325
ACCGCGGA	0.0405
ACTACCAA	-0.123
AGATAACC	-0.041
AGCTTTAC	-0.141
AGGAAGAA	-0.27
CGTTGACA	0.17
GAAAGAAC	0.00604
ACGGGGAC	0.007
CGGGTAGC	-0.206
ATATAGCC	0.0497
GCCAGAAC	-0.0373
CTTGGCAC	0.0174
ACGTTTGA	0.105
CTTGGCCA	-0.0402
GCGACTAA	0.048
CGGTTGTC	0.136
GCCTGTAA	-0.193
ATATCTAC	0.0547
ATCTTCCA	-0.148
AGTTATAG	0.1
ATTACCTA	0.0259
AGCTCGAC	-0.0285
CCCAGGCC	-0.194

Sequence	PBM E-score
AAAGTGGC	-0.203
GATGGGTA	-0.0575
AGTGTCCC	0.375
ATCAGGTC	0.0328
GCTCATAA	-0.103
AATAATCG	0.035
GGGCCATA	0.024
CTTCGCAA	0.0342
TATAGCGA	-0.138
ACGGATAC	0.101
CACCAGCC	-0.268
CTTTGACA	0.132
ACCGGTAG	-0.227
AAACATGA	0.197
TCTCTTAA	0.0588
GGCCTGGA	-0.179
CACAAGTC	0.0697
CCGTCCCA	-0.191
ATGCTCGA	0.00559
ATGATAAT	0.0338
GACTAAAC	-0.144
CAAGCGTG	0.0238
TCTATACA	-0.0294
GGTGGCCA	-0.242
GAAAGATA	-0.00073

Sequence	PBM E-score
CGTACTAA	0.093
AGTGGGCG	-0.0515
AATCCGAC	0.174
ACCCCCCA	-0.31
CGACTGAA	0.038
CTGTACTC	-0.0785
ACAATGGA	0.243
ACGCTTCC	-0.194
CGCTCCGA	0.119
CGATTAGA	-0.0577
GGTACCTA	-0.0691
ATCTTAGG	-0.147
AACCTCGT	-0.0168
AGACTAGG	-0.0685
GTGGTGGA	-0.0952
CCCACAGA	-0.021
CGGATAGA	0.18
ATCAGATA	0.00322
TGCTCTAA	-0.00439
GATATATA	0.235
CGCTATGC	-0.215
AGGCGCAG	-0.134
AGGGAAAT	-0.0436
CGGCAACC	-0.111
CAGTCTAC	-0.223

Sequence	PBM E-score
ACTACTTC	0.00092
TAACATAA	0.214
GACCGCTA	-0.107
GAATGCTA	-0.112
CCTTCATC	-0.249
GGTATAAA	0.183
ACACCACC	-0.0854
GGCTTCTA	-0.0417
ATTCTGTG	0.117
GCCATTCC	-0.174
GGACTCGA	-0.105
TACCACGA	0.0799
CGAAGCTC	-0.107
ATTGCGCA	-0.0114
ATTGGTTC	0.0715
ATACGGTC	0.0431
AAGCGAGG	-0.178
AGACAGAG	-0.00872
ATGCAGCC	0.0973
CGGAATGA	0.0592
CGACACAC	0.0525
CAAAACCG	0.0278
GATCGAGA	-0.0215
AGTGTGGC	-0.0887
ATGTGGCC	-0.0259

Sequence	PBM E-score
CATTCCAG	-0.0187
GGAACCCA	-0.0761
CGCATGGA	-0.0802
CATTATGG	-0.157
CCTTCGCG	0.0386
ATCTTGTC	0.246
CTCTCTGA	-0.172
CTAACCGA	-0.149
CATTGTTA	0.11
CTGGGCGC	-0.202
AGGATTGA	0.112
AGAACCAA	-0.13
ACCCAATC	-0.0136
GACTGGCA	-0.235
CAATTGGG	-0.0445
AGCAATCG	0.0419
AACGCCAA	-0.0218
GAGTGATA	0.105
ATGGCCGG	-0.0642
CCCGCTCA	-0.172
AGAAGGAG	-0.387
ATCTTACA	0.128
CTCATCCA	-0.125
TTGGGAAA	0.0587
CCCGGTAG	-0.114

Sequence	PBM E-score
GACGAGAA	0.103
GGCGCACA	0.0215
AGAAAAGC	-0.0232
CGTAAAGC	-0.187
TAATATCA	0.108
AGGACACT	0.358
ACCGAGCC	0.0368
CCAATCGG	0.00055
TACTAGGA	0.198
CTTTCGTC	0.053
AAATCTTA	0.0811
ACTATTCG	0.0722
CTGACATA	0.269
CGGCACTA	-0.024
CCGCATAA	0.0515
CCAAGAAG	-0.0807
ACGTAGAC	0.022
GCCGACGA	0.022
CGATTCGC	-0.00543
AGATGCGC	0.058
ACAGTAGC	0.0239
GATTGCAA	0.0184
